# The source gives no read counts; variants with many changes may rest on few reads.
# B1: LINE1-mini (parent)
# chain: GGCAGAGCUCAACACAGCGUGGCAAAGUGGCUGUGGCUAGACUGCC
# Variants of: B1
# Experiment: self-cleavage, relative activity (ratio to wild type); higher = more cleavage; in vitro, sequencing; the parent is a self-cleaving ribozyme
row,Variant,self-cleavage
1,C23U U32G G36A C46A,0.03
2,C23U U28C U34G C42U,0.04
3,A24C U28C C42G,0.03
4,C23A U38C C46A,0.15
5,C23U C37G G40U,0.06
6,C23U A25U G35C C45U,0.31
7,C23A C31U A41C,0.03
8,C23U A25U U43A G44C,0.3
9,C23A G36U G44A,0
10,C23U U32C C45G,0.03
11,C23A G27U C42A,0.15
12,C23U A25G G29A G30A U38C C45G,0.03
13,C23A G29C C37G C46U,0.01
14,C23A A25G C46U,0.49
15,C23A A25G C46G,2.72
16,C23A G30C G40A C42U,0.03
17,C23A A24C G30U G35U,0.02
18,C23A A24G C42U C46U,2.1
19,C23G C31G G33U,0.03
20,G22U U43A G44C,0.15
21,A24C G27A G44C C46A,0.06
22,A24G A26G G27U C31G C45U,0.01
23,C23A G27U G33U A39U C45U,0.02
24,C23U C31G G33U A41G C42A C45G,0.01

row,Variant,self-cleavage
1,C23U C31A U43G,0
2,G22U U28G G44U,0.5
3,C23A A24U U28A,0.2
4,C23U A25C G36A,0.08
5,C23A C42G G44A,0.03
6,A24C G27A C45G,0.11
7,A24C A25U C37U G40C,0.16
8,C23G G29U C45A,0.38
9,C23U G27A U32G G35C,0.05
10,C23A U28C G33U U43G,0.01
11,C23A C31A C37G,0.02
12,C23G G36A C42A C46U,0.33
13,A24C U28G U34C G40U,0.04
14,C23A U28C C37G,0.01
15,C23U G35U C45A,0.14
16,A24G A26U U28G G40A C42A,0
17,C23U A24G C31A U32G,0.02
18,C23U G35A C46A,0.05
19,C23A G33A A39G A41G,0.1
20,A24C C31G G36A,0.83
21,C23G G29A C45G,0.59
22,C23A G36C U38C,0.03
23,C23G G27U G44A,0.3
24,C23U U28G G29A U32A,0.87

row,Variant,self-cleavage
1,C23U G30A G36A,0.56
2,C23G A25C G33A,0.06
3,C23A A26C C45A,0.73
4,C23U G33U C37G G44U,0.09
5,C23G C37G C42A,0.01
6,C23G C37G C42G,0.01
7,C23U G29U G36C,0.05
8,C23G A24U G36A,0.21
9,A24C C31U G33U,1.02
10,A24G A26U C46A,0.56
11,C23U G33U C37A C46G,0
12,C23A U32A G33C,0.03
13,C23U C31G G36A,0.05
14,A24C G27A C31A,0.06
15,C23U C42A G44C,0.01
16,A24C U32A A39U A41U C42G,0.02
17,C23U G35U C37U,0.03
18,A24C G35U C42A,0.04
19,C23G C31A G33A,0.05
20,C23G A25C C37A,0.02
21,C23U G30A U32G G35C,0.04
22,C23A U43G C45G,0.11
23,C23G A25U G30A,0.5
24,C23U G29A U38A,0.39

row,Variant,self-cleavage
1,C23A A25U U28A C46A,0.51
2,A24C G30C C37G U38A,0.04
3,C23A C31G U32A G36A,0.03
4,A24C G33U U38A C42G,0.04
5,C23A G35C U38G A41G,0.02
6,A24C G30A U43A,0.07
7,A24C U28A G35C,0.05
8,G22U U28A G30C G33U G44A,0.04
9,A24C A39G C42A,0.06
10,C23U G29U C42A,0.1
11,C23A G29C G30U A41C G44U,0.02
12,C23A C31G U32G,0.05
13,A24C G29U G40U,0.1
14,C23A A26U G36C G44U,0.01
15,C23G A24G C31A,0.03
16,C23G A26U U38C U43A,0.04
17,C23U A26C A41G C42G,0.05
18,C23U A26G U38G,0
19,C23A U38G C42U,0.14
20,C23U G35A G36U,0.32
21,C23U G40A C46U,0.03
22,C23A G36U C37G,0.01
23,C23A U28G G29U,0.64
24,C23U A25C U43C,0.11

row,Variant,self-cleavage
1,C23G A25G C45G,0.11
2,C23U G30U U32G G33U U38A,0.04
3,C23U U28G C31U G35A G36U C42U,0.08
4,A24C A39C A41G,0.03
5,A24C A25G C31U,0.11
6,C23G A26C A41C,0.03
7,A24C U28A G40U C42G,0.02
8,G22U U28G C37U A41G,0.01
9,C23U G30A C31U C37A G44U,2.26
10,C23G A25C G27C C42U,0.47
11,C23U A26C G29A,0.79
12,C23U A24U C31U U34C,0.03
13,C23A C42G C45U,0.03
14,A24C U28A G44U,0.01
15,C23A U34G U43G,0
16,C23U U43A G44C,0.03
17,C23U G27A G30U,1.28
18,A24C A41G C46A,0.03
19,C23G A26G G29A U34G,1
20,C23U C37G C42G,0.02
21,A24C U32G G40C C42U,0.02
22,C23U G30A C45G,0.09
23,A24C U28A U34G G40A,0.26
24,C23A A26G G27C,1.42

row,Variant,self-cleavage
1,A24G A25G G30A,2.82
2,C23A G35C G44C,0.06
3,G22U U28G G30U G33C C37U,0.02
4,G22U U38G C46A,0.01
5,C23G C31G G35C,0.12
6,C23A G30C A41U,0.63
7,C23U G29C U34G A39G,0.02
8,C23A G35C C42A,0.1
9,C23A A24C U32A,0.06
10,G22U U32G C46G,0.1
11,A24G A26U U38G,0.04
12,G22U G40A C46G,0.22
13,C23U U34C C45G,0.07
14,C23U A25G G40A,0.16
15,C23U C31G G36A A39G G44C,0.02
16,C23U A25U U32A,0.17
17,C23A A26C U32G C37A A41U,0.05
18,C23G A25C C45U,0.18
19,C23U U34A G40U,0.04
20,C23U G27A U34A G40U,0.08
21,A24C G35A A39C,0.08
22,C23A G30U C31A,0.25
23,C23A A26U G27U G36A,0.04
24,C23U G27U U34C,0.14

row,Variant,self-cleavage
1,C23A G35C C45U,0.05
2,C23U U28C U34A,0.11
3,A24C C31A U43C G44U,0.02
4,C23G A26C C45G,0.17
5,C23A U38G A39U,0.1
6,C23G A24C G33C C45G,0.03
7,C23U U34A A41G C42A,0.01
8,C23G G30C A41G,0.28
9,A24C G35C G36A,0.01
10,C23U G30U U34G G36C C46A,0.03
11,C23U A26G C37A A39U A41U,0.33
12,G22U U43G C45A,0.35
13,C23A U28G A39C,0.74
14,C23G G40U C46U,0.04
15,C23G U34A U43G,0
16,C23A U32G C46G,0.15
17,C23A C31A G35A,0.05
18,C23U C31G G40A,0
19,G22U U28C G36A,0.02
20,C23U A25U C45U,0.83
21,A24C A41C C46A,0.17
22,A24C G30U G40C,0.02
23,A24C A25C C31U C46A,0.07

# — the RNAGym collection of RNA variant scans (doi:10.7554/elife.90254)
